To fix the notation:
T1: RBFOX1 RRM (Homo sapiens, UniProt Q9NWB1 109-208)
T1 sequence: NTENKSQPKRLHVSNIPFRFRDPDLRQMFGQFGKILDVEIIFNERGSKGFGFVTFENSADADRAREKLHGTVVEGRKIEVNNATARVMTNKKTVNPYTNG

B1: UACCGCA (DNA:RNA)
RNA: GGGAGACCGGAAUUCAGAUUGUCCUACCGCAUUAAAUCCCGUCGUAGCCACCA
DNA 1: CAATCTGAATTCCGGTCTCCC
DNA 2: TGGTGGCTACGACGGGATT
B2: ACCGUGC (DNA:RNA)
RNA: B1 RNA with U25A, A26C, C28G, G29U, C30G, A31C
DNA 1: CAATCTGAATTCCGGTCTCCC
DNA 2: TGGTGGCTACGACGGGATT
B3: CGUAUAA (DNA:RNA)
RNA: B1 RNA with U25C, A26G, C27U, C28A, G29U, C30A
DNA 1: CAATCTGAATTCCGGTCTCCC
DNA 2: TGGTGGCTACGACGGGATT
B4: CCCUAGA (DNA:RNA)
RNA: B1 RNA with U25C, A26C, C28U, G29A, C30G
DNA 1: CAATCTGAATTCCGGTCTCCC
DNA 2: TGGTGGCTACGACGGGATT
B5: GCGCUAC (DNA:RNA)
RNA: B1 RNA with U25G, A26C, C27G, G29U, C30A, A31C
DNA 1: CAATCTGAATTCCGGTCTCCC
DNA 2: TGGTGGCTACGACGGGATT
B6: UUGCCAG (DNA:RNA)
RNA: B1 RNA with A26U, C27G, G29C, C30A, A31G
DNA 1: CAATCTGAATTCCGGTCTCCC
DNA 2: TGGTGGCTACGACGGGATT
B7: CAUACAU (DNA:RNA)
RNA: B1 RNA with U25C, C27U, C28A, G29C, C30A, A31U
DNA 1: CAATCTGAATTCCGGTCTCCC
DNA 2: TGGTGGCTACGACGGGATT
B8: UUCUGAA (DNA:RNA)
RNA: B1 RNA with A26U, C28U, C30A
DNA 1: CAATCTGAATTCCGGTCTCCC
DNA 2: TGGTGGCTACGACGGGATT
B9: ACUGCAG (DNA:RNA)
RNA: GGGAGACCGGAAUUCAGAUUGUCCACUGCAGUUAAAUCCCGUCGUAGCCACCA
DNA 1: CAATCTGAATTCCGGTCTCCC
DNA 2: TGGTGGCTACGACGGGATT
B10: UACUCGA (DNA:RNA)
RNA: B1 RNA with C28U, G29C, C30G
DNA 1: CAATCTGAATTCCGGTCTCCC
DNA 2: TGGTGGCTACGACGGGATT
B11: ACGAUGG (DNA:RNA)
RNA: B9 RNA with U27G, G28A, C29U, A30G
DNA 1: CAATCTGAATTCCGGTCTCCC
DNA 2: TGGTGGCTACGACGGGATT
B12: CUCUACG (DNA:RNA)
RNA: B1 RNA with U25C, A26U, C28U, G29A, A31G
DNA 1: CAATCTGAATTCCGGTCTCCC
DNA 2: TGGTGGCTACGACGGGATT
B13: AAAUAGU (DNA:RNA)
RNA: B9 RNA with C26A, U27A, G28U, C29A, A30G, G31U
DNA 1: CAATCTGAATTCCGGTCTCCC
DNA 2: TGGTGGCTACGACGGGATT
B14: UCACGGC (DNA:RNA)
RNA: B1 RNA with A26C, C27A, C30G, A31C
DNA 1: CAATCTGAATTCCGGTCTCCC
DNA 2: TGGTGGCTACGACGGGATT
B15: CUGCUUU (DNA:RNA)
RNA: B1 RNA with U25C, A26U, C27G, G29U, C30U, A31U
DNA 1: CAATCTGAATTCCGGTCTCCC
DNA 2: TGGTGGCTACGACGGGATT
B16: GUGGAGG (DNA:RNA)
RNA: B9 RNA with A25G, C26U, U27G, C29A, A30G
DNA 1: CAATCTGAATTCCGGTCTCCC
DNA 2: TGGTGGCTACGACGGGATT
B17: CGGAGGG (DNA:RNA)
RNA: B9 RNA with A25C, C26G, U27G, G28A, C29G, A30G
DNA 1: CAATCTGAATTCCGGTCTCCC
DNA 2: TGGTGGCTACGACGGGATT
B18: GACCCAA (DNA:RNA)
RNA: B1 RNA with U25G, G29C, C30A
DNA 1: CAATCTGAATTCCGGTCTCCC
DNA 2: TGGTGGCTACGACGGGATT
B19: ACUCCUC (DNA:RNA)
RNA: B9 RNA with G28C, A30U, G31C
DNA 1: CAATCTGAATTCCGGTCTCCC
DNA 2: TGGTGGCTACGACGGGATT
B20: GGUACUU (DNA:RNA)
RNA: B9 RNA with A25G, C26G, G28A, A30U, G31U
DNA 1: CAATCTGAATTCCGGTCTCCC
DNA 2: TGGTGGCTACGACGGGATT
B21: CGCUAUG (DNA:RNA)
RNA: B9 RNA with A25C, C26G, U27C, G28U, C29A, A30U
DNA 1: CAATCTGAATTCCGGTCTCCC
DNA 2: TGGTGGCTACGACGGGATT
B22: GCAUUUC (DNA:RNA)
RNA: B9 RNA with A25G, U27A, G28U, C29U, A30U, G31C
DNA 1: CAATCTGAATTCCGGTCTCCC
DNA 2: TGGTGGCTACGACGGGATT
B23: CAAAUUU (DNA:RNA)
RNA: B1 RNA with U25C, C27A, C28A, G29U, C30U, A31U
DNA 1: CAATCTGAATTCCGGTCTCCC
DNA 2: TGGTGGCTACGACGGGATT
B24: AACCUUG (DNA:RNA)
RNA: B1 RNA with U25A, G29U, C30U, A31G
DNA 1: CAATCTGAATTCCGGTCTCCC
DNA 2: TGGTGGCTACGACGGGATT
B25: AUGACGG (DNA:RNA)
RNA: B9 RNA with C26U, U27G, G28A, A30G
DNA 1: CAATCTGAATTCCGGTCTCCC
DNA 2: TGGTGGCTACGACGGGATT
B26: UAUCUUA (DNA:RNA)
RNA: B1 RNA with C27U, G29U, C30U
DNA 1: CAATCTGAATTCCGGTCTCCC
DNA 2: TGGTGGCTACGACGGGATT
B27: GUACACA (DNA:RNA)
RNA: B1 RNA with U25G, A26U, C27A, G29A
DNA 1: CAATCTGAATTCCGGTCTCCC
DNA 2: TGGTGGCTACGACGGGATT
B28: GUCUAAC (DNA:RNA)
RNA: B9 RNA with A25G, C26U, U27C, G28U, C29A, G31C
DNA 1: CAATCTGAATTCCGGTCTCCC
DNA 2: TGGTGGCTACGACGGGATT
B29: AGUCGAC (DNA:RNA)
RNA: B9 RNA with C26G, G28C, C29G, G31C
DNA 1: CAATCTGAATTCCGGTCTCCC
DNA 2: TGGTGGCTACGACGGGATT
B30: UAAUGGA (DNA:RNA)
RNA: B1 RNA with C27A, C28U, C30G
DNA 1: CAATCTGAATTCCGGTCTCCC
DNA 2: TGGTGGCTACGACGGGATT
B31: CCUGAGG (DNA:RNA)
RNA: B9 RNA with A25C, C29A, A30G
DNA 1: CAATCTGAATTCCGGTCTCCC
DNA 2: TGGTGGCTACGACGGGATT

Residue numbers refer to the chain shown, from its start. This is one part of the list.

The experiment deals with T1, RBFOX1 RRM. Kind of experiment: EMSA; HiTS-Eq, 1 nM pool, 10 min; buffer printed only for the single-RNA assays: 10 mM Tris pH 7.5, 150 mM NaCl, 3.4 mM EDTA, 0.001% NP-40, 30 C. The following applies: tags: His6 N-terminal (pET28a); label: 5' 32P. An outline of the steps: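 Purified RbFox RRM (wild type or mutant) was equilibrated for 10 min in 50 µL with 1 nM of a 5′-radiolabelled pool of RNA with 7 randomized nucleotides, its flanks annealed to DNA oligonucleotides, across increasing protein concentrations. Free RNA was separated by 8% native PAGE, excised, reverse-transcribed, PCR-barcoded and sequenced on an Illumina HiSeq 2500. Relative association constants came from read-count changes of each variant against the control reaction, normalised to the cognate motif.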
With B1, the binding signal was 0.0103 KA relative to UGCAUGU.
For the molecule B2, the binding signal was 0.00919 KA relative to UGCAUGU.
As to B3, the binding signal was 0.00298 KA relative to UGCAUGU.
For B4, the binding signal was 0.0137 KA relative to UGCAUGU.
The figure for B5 is 0.0117 KA relative to UGCAUGU; for B6 it is 0.0178 KA relative to UGCAUGU; for B7 it is 0.000351 KA relative to UGCAUGU.
B8: the binding signal was 0.0233 KA relative to UGCAUGU.
The figure for B9 is 0.0127 KA relative to UGCAUGU.
For B10, the binding signal was 0.0112 KA relative to UGCAUGU.
As for B11, the figure is 0.0172 KA relative to UGCAUGU.
Turning to B12, the binding signal is 0.00524 KA relative to UGCAUGU.
For B13, the binding signal is 0.00335 KA relative to UGCAUGU.
The figure for B14 is 0.00943 KA relative to UGCAUGU.
For B15, the binding signal was 0.0158 KA relative to UGCAUGU.
In the case of B16, the binding signal was 0.023 KA relative to UGCAUGU.
In the case of B17, the binding signal was 0.0111 KA relative to UGCAUGU.
In the case of B18, the binding signal was 0.00299 KA relative to UGCAUGU.
Consider B19, for which the binding signal is 0.00144 KA relative to UGCAUGU.
For B20, the binding signal is 0.00377 KA relative to UGCAUGU.
For the molecule B21, the binding signal is 0.0146 KA relative to UGCAUGU.
B22: the binding signal is 0.0113 KA relative to UGCAUGU.
In the case of B23, the binding signal was 0.00138 KA relative to UGCAUGU.
B24: the binding signal was 0.00832 KA relative to UGCAUGU.
On to B25, for which the binding signal was 0.0124 KA relative to UGCAUGU.
As for B26, the binding signal is 0.00824 KA relative to UGCAUGU.
With B27, the binding signal is 0.00135 KA relative to UGCAUGU.
Turning to B28, the binding signal was 0.00757 KA relative to UGCAUGU.
The figure for B29 is 0.00992 KA relative to UGCAUGU.
In the case of B30, the binding signal is 0.00218 KA relative to UGCAUGU.
Regarding B31, the binding signal was 0.0125 KA relative to UGCAUGU.

Values taken from publication PMC9911399, “Two distinct binding modes provide the RNA-binding protein RbFox with extraordinary sequence specificity”.
